# Measured values published in PubChem BioAssay AID686979 (National Center for Advancing Translational Sciences (NCATS), 2013).
# Values joined by “and” are separate entries in the source; they are usually repeats but may differ in a detail not shown here. Equal entries are not always repeated. About 50,000 (12%) of roughly 420,000 compounds were called active. Inconclusive means that the source gave no clear call. Such entries were picked first, then a sample of the others. Calls follow the shape of the dose curve; as a rule, active = well fitted inhibition curve with a large enough effect; inconclusive = small, poorly fitted or top-dose-only effect; inactive = flat fitted curve, though single readings scatter. Potencies of inconclusive entries are doubtful fits and often do not repeat.
# Assay: qHTS for Inhibitors of human tyrosyl-DNA phosphodiesterase 1 (TDP1): qHTS in cells in presence of CPT; also: nearly all actives have a fitted effect of over 55% in size
# Settings: chicken DT40 Tdp1-/-;hTDP1 cells + 20 nM CPT, ATP luminescence, 48 h; activity change, negative = growth inhibition: at 46.2 µM (top of the series) unless noted
# How it was run: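 Chicken DT40 Tdp1-/- cells stably complemented with human TDP1 were seeded at 400 cells/well in medium containing 20 nM camptothecin, exposed to pin-transferred compounds, and grown at 37 °C for at least 48 hr. Viability was read as ATP luminescence.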
# % is scaled to controls: 0 for no effect and ±100 for the full control effect; potency is read from the fitted curve at half-maximal effect; tags tell the direction and shape of the fitted curve.
SMILES,"activity change, negative = growth inhibition",Potency
CN(C)c1cccc(C(=O)OCC(=O)c2ccc[nH]2)c1,inconclusive: -36.8% [inhibitor],
O=C1Cc2ccccc2Sc2cc(OCCCN3CCCCC3)ccc21,,"inconclusive: 29.1 µM [inhibitor, single point]"
Cc1ccc(/C=C/C(=O)NCc2cccs2)cc1,,"inconclusive: 29.1 µM [inhibitor, single point]"
CCOc1ccc(C(=O)NNC(=O)CCNC(=O)c2ccco2)cc1OC,,inactive
Cc1ccccc1Cn1cnc2c(nnn2Cc2ccc(F)cc2)c1=O,,inactive
O=C(CCCN1C(=O)/C(=C/c2ccccc2Cl)SC1=S)NNC(=O)c1ccc(Cl)cc1,,"inconclusive: 18.4 µM [inhibitor, single point]"
O=C(CSc1n[nH]c(=O)[nH]c1=O)N/N=C/C=C\c1ccccc1,,"inconclusive: 20.6 µM [inhibitor, single point]"
O=C(Cn1c(-c2cccs2)cc2cc(F)ccc21)N1CCN(c2cccc(Cl)c2)CC1,,inactive
CC(=O)Nc1ccc(NC(=O)C(C)OC(=O)c2c(C)nn(-c3ccccc3)c2Cl)cc1 (configuration not stated),,"inconclusive: 16.4 µM [inhibitor, single point]"
COc1ccc(-n2nc(C#N)c(Cl)cc2=O)cc1,,active: 3.26 µM
COc1cccc(Cc2nc3ccccc3nc2SCC(=O)N2CCN(c3ccccc3)CC2)c1,,"inconclusive: 23.1 µM [inhibitor, single point]"
COc1ccc(CCNC(=O)CCCNC(=O)Cn2cnc3sc(C)c(C)c3c2=O)cc1OC,,inactive
CS(=O)(=O)Nc1ccccc1C(=O)NCCSc1ccc(Cl)cc1,,"inconclusive: 13 µM [inhibitor, single point]"
O=C(N1CCN(c2ccccc2F)CC1)C1(c2cccs2)CCOCC1,,"inconclusive: 29.1 µM [inhibitor, single point]"
CCCCC[C@H]1CN(CCCC)C(=O)[C@@H]1CC(=O)NCc1ccc(OC)cc1,,"inconclusive: 35.5 µM [inhibitor, single point] and inconclusive: 29.1 µM [inhibitor, single point]"
Cc1[nH]c2ccccc2c1N=Nc1ccccc1F,,"inconclusive: 29.1 µM [inhibitor, single point]"
COc1cccc2c1cc1c(=O)n(CC(=O)O)nc(C)n12,,inactive
Clc1cc(Cl)c(OCCCCn2cncn2)c(Cl)c1,,"inconclusive: 29.1 µM [inhibitor, single point]"
CCCCCn1c(=O)[nH]c2cc(C(=O)N3CCN(CC)CC3)ccc2c1=O,,inactive
Oc1ccc(N=Nc2ccc(Br)cc2)c(O)c1,,active: 25.9 µM
CCCN(CC(=O)Nc1ccc(Cl)cc1Cl)C(=O)/C=C/c1cccc([N+](=O)[O-])c1,,"inconclusive: 23.1 µM [inhibitor, partial curve]"
CCOc1ccc(-c2c(C)nn3c(C)c(C(=O)NCCc4ccccc4)cnc23)cc1OCC,,"inconclusive: 13 µM [inhibitor, partial curve]"
COC(=O)C1OC(OC2CC[C@]3(C)C(CC[C@@]4(C)[C@@H]3CC=C3[C@@H]5CC(C)(C)CC[C@]5(C(=O)OC5OC(CO)C(O)C(O)C5O)CC[C@]34C)C2(C)C)C(O)C(O)C1O[C@H]1OCC(O)C(O)C1O (some centres not stated),,"inconclusive: 29.1 µM [inhibitor, single point]"

SMILES,"activity change, negative = growth inhibition",Potency
Cc1noc(C)c1COc1cccc(C(=O)OCC(=O)N2CC(=O)Nc3ccccc32)c1,,active: 0.58 µM
COc1ccc(OCc2cc(C(=O)NC(C)Cc3cnccn3)no2)c(Cl)c1 (configuration not stated),,"inconclusive: 16.4 µM [inhibitor, partial curve, poor fit]"
CCC1CN(C(=O)Nc2cccc(OC)c2)c2ccccc2O1 (configuration not stated),,"inconclusive: 16.4 µM [inhibitor, single point]"
Nc1nc(SCC(=O)Nc2cc(C(F)(F)F)ccc2N2CCOCC2)n[nH]1,,inactive
CCC(CC)C(=O)Oc1c(Sc2ccccc2[N+](=O)[O-])c(C)nn1C(C)(C)C,,"inconclusive: 20.6 µM [inhibitor, single point]"
COc1ccc(N2C(=O)NC(NS(=O)(=O)c3ccccc3)(C(F)(F)F)C2=O)cc1 (configuration not stated),,inactive
Cc1c(N=NC2=C(O)CC(C)(C)CC2=O)cc2c(c1[N+](=O)[O-])C(C)(C)CC2(C)C,,"inconclusive: 4.11 µM [inhibitor, full curve, poor fit]"
C[C@H](NC(=O)OC(C)(C)C)[C@@H](O)c1ccco1,,inactive
CCOC(=O)N1CCN(Cc2nc3cc(NC(=O)c4ccco4)ccc3n2C)CC1,,inactive
COc1ccccc1CNC(=O)CSc1cc(=O)n(C)c2ccccc12,,"inactive and inconclusive: 11.6 µM [inhibitor, partial curve]"
COc1ccc(-c2cc(C(F)(F)F)nc(NCc3ccc(Cl)cc3)n2)cc1,,"inconclusive: 25.9 µM [inhibitor, single point]"
COc1ccccc1NC(=S)N1CCC(c2nc3cc(C)c(C)cc3[nH]2)CC1,,"inconclusive: 23.1 µM [inhibitor, single point]"
CCOC(=O)c1c(NC(C)=O)sc2c1CCN(Cc1ccccc1)C2,,"inconclusive: 29.1 µM [inhibitor, single point]"
CCn1c(=S)sc2c(=O)n(CC(=O)Nc3ccccc3OC)c(C)nc21,,"inconclusive: 23.1 µM [inhibitor, partial curve, poor fit]"
O=S(=O)(c1ccc(Br)cc1)c1nc(-c2ccccc2)oc1NCCN1CCOCC1,,"inconclusive: 25.9 µM [inhibitor, single point]"
CCOc1ccc(-n2c(-c3ccccc3)c[n+]3c2CCC3)cc1,,active: 1.03 µM
Cc1ccc(NC(C#N)c2ccccc2OCc2ccccc2)cc1 (configuration not stated),,"inconclusive: 18.4 µM [inhibitor, single point]"
CCOC(=O)C1CCN(C2CC(=O)N(c3cccc(Cl)c3)C2=O)CC1 (configuration not stated),,inactive
CCOC(=O)c1c(N)sc2c1CCC(C)C2 (configuration not stated),,inactive
CCCCNC(=O)C[C@@H]1C[C@@]2(C(=O)OCC)CCCC=C2N(Cc2ccc(Cl)cc2Cl)C1=O,,active: 20.6 µM
CC(C)C(NC(=O)c1ccc(C(C)(C)C)cc1)C(=O)NCC1(N(C)C)CCCCC1 (configuration not stated),,"inconclusive: 16.4 µM [inhibitor, single point]"
Cc1ccc(NC(=O)Nc2nnc(Cc3ccc([N+](=O)[O-])cc3)s2)cc1C,,"inconclusive: 7.31 µM [inhibitor, partial curve]"
CCOc1ccc(C2C(C(=O)Nc3ccccc3OC)=C(C)Nc3c(C(=O)Nc4cccc(C)c4)cnn32)cc1 (configuration not stated),,"inconclusive: 23.1 µM [inhibitor, single point]"

SMILES,"activity change, negative = growth inhibition",Potency
CCC(C)(C)C1CCc2c(sc(NC(=O)c3cccs3)c2C(N)=O)C1 (configuration not stated),,"inconclusive: 15.8 µM [inhibitor, single point]"
Cc1cc(C)c(C)c(OCC(=O)N2CCN(c3ccccn3)CC2)c1,,"inconclusive: 18.4 µM [inhibitor, partial curve]"
C=CCn1c(=N)n(CC(=O)c2ccc(Br)cc2)c2ccccc21,,"inconclusive: 23.1 µM [inhibitor, single point]"
O=C(c1ccc(S(=O)(=O)N2CCc3ccccc3C2)cc1)N1CCCCC1,,"inconclusive: 16.4 µM [inhibitor, single point]"
NC(=O)COC(=O)c1ccc(NS(=O)(=O)c2ccc3c(c2)OCCO3)cc1,,"inconclusive: 23.1 µM [inhibitor, single point]"
COC(=O)C1=C(C)N(Cc2ccc(OC)cc2)C(=O)/C1=C\c1ccco1,,active: 25.9 µM
O=C(OCc1cccc(C(F)(F)F)c1)c1cc(S(=O)(=O)N2CCOCC2)ccc1F,,inactive
COC(=O)c1ccccc1N=Nc1c(C)[nH][nH]c1=O,,"inconclusive: 29.1 µM [inhibitor, single point]"
COc1ccc(-n2c(=O)c3ccc(C(=O)NCc4ccc(C)cc4)cc3n(Cc3cccc(Cl)c3)c2=O)cc1,,"inconclusive: 23.1 µM [inhibitor, single point]"
CCOC(=O)C(=O)N(C)c1c(CC)nc2c(OCc3cccc(Cl)c3)cccn12,,active: 16.4 µM
COc1ccc(C2CC(O)(c3ccccc3)Oc3cc(OC)c(OC)c(OC)c32)cc1 (configuration not stated),,"inconclusive: 18.4 µM [inhibitor, single point]"
COc1ccc(-n2c(COc3ccc(C)cc3)nnc2SCC(=O)O)cc1,,inactive
O=S(=O)(/N=C(/Nc1ccccn1)c1ccccc1)c1ccccc1,,inactive
COc1ccc(S(=O)(=O)N2CCOCC2)cc1NC(=O)CN(C)CC(=O)Nc1cccc(F)c1,,inactive
COc1ccc(CN(Cc2ccco2)C(=O)c2ccccc2F)cc1,,active: 16.4 µM
CCOC(=O)N1CCC(NC(=O)c2ccc(N3CCC4(CC3)OCCO4)c([N+](=O)[O-])c2)CC1,,"inconclusive: 29.1 µM [inhibitor, partial curve, poor fit]"
O=S(=O)(Nc1ccccc1N1CCOCC1)c1ccc(Cl)cc1,,"inconclusive: 29.1 µM [inhibitor, single point]"
CC(=O)NCC1CCCN(c2nc3nonc3nc2N(C)Cc2ccccc2)C1 (configuration not stated),inconclusive: -22.9% [inhibitor],
CC1CCCC(NC(=O)CSc2ncnc3ccccc23)C1C (configuration not stated),,"inconclusive: 25.9 µM [inhibitor, single point]"
COc1ccc(C2NC(=S)NC(C)=C2C(=O)Nc2ccccn2)cc1 (configuration not stated),,"inconclusive: 18.4 µM [inhibitor, single point]"
CCOC(=O)c1c(C)[nH]c(C(=O)OCC(=O)N(CC(C)C)c2c(N)n(Cc3ccccc3)c(=O)[nH]c2=O)c1C,,"inconclusive: 18.4 µM [inhibitor, single point]"
